Laboratory results taken from the supplement of paper PMC3334620.
Whole data set: some 33,000 sequences, median “E-score (-0.5 to 0.5)” near -0.035, cut for the highest 2% near 0.34. The list shows a part of the results.

biological target: T1, Mot3 (UniProt P54785); experiment: PBM E-score (8-mer binding enrichment) (E-score (-0.5 to 0.5)); higher = stronger / more preferred TF binding; most listed sequences are background and not binding sites; settings: protein concentration: 200 nM; construct: GST-full length
T1 sequence: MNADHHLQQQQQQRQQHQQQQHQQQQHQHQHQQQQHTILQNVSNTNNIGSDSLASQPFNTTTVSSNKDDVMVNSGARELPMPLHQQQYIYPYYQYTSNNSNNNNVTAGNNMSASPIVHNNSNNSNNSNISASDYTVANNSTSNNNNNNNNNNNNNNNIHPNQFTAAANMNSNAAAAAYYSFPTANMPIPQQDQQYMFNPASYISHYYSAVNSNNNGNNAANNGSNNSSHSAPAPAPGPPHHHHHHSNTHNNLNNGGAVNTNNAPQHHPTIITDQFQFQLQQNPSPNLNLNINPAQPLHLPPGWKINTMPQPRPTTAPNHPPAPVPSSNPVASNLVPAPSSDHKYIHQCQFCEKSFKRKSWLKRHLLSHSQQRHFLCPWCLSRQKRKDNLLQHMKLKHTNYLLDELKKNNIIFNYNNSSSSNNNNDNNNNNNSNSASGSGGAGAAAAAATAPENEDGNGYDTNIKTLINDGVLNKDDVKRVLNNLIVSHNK
Procedure: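 Universal 'all 10-mer' protein binding microarrays (Agilent AMADID 015681) probed with GST-tagged S. cerevisiae TFs (full-length or DBD) made by in vitro transcription/translation (PURExpress), about 100-200 nM. Bound TF was detected with fluorescent anti-GST. Each ungapped 8-mer (which stands for itself and its reverse complement) is scored by the PBM enrichment score (E-score), a modified Wilcoxon-Mann-Whitney statistic from -0.5 to +0.5, computed with the Universal PBM Analysis Suite. Scale: above 0.35 generally sequence-specific binding.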

Sequence	PBM E-score
ACTACAAT	0.0197
CTAGCCGC	-0.124
CCACTTAC	0.0843
AGAGATCC	-0.245
ACACGAGT	0.332
AGAGCAAG	-0.00945
CGGAATTA	0.152
GCGGTATA	-0.118
CGTCCATA	-0.0465
GGCCACCA	-0.0558
AAAGGGGG	-0.0401
TTGACAAA	0.167
CCAACAGG	0.00289
CTATATAC	0.271
ACCTGATA	0.203
CCCGTTCA	-0.148
ACGATCCC	-0.205
CCAAGCGG	-0.135
ACAATCGT	0.138
GGTACTAA	0.0744
GTGGCTAA	-0.092
ATGCGAAT	0.0233
AATAATGA	0.0121
GAAAATGA	0.0287
TCTAAAGA	0.168

Sequence	PBM E-score
CCTTAGCC	-0.183
AATAGATC	-0.11
CGCGAGGC	-0.125
ACGGGCAC	0.159
AACCTTAT	0.0189
ACTCCGGA	-0.0267
CCAGTCAA	-0.0833
AACGGATA	-0.118
CTACCGCC	-0.0822
AAAAGTCC	-0.0392
AAGAAGGT	0.146
AGTCCACT	-0.0666
CGATTCTA	-0.207
CTGCCAAA	-0.11
AGAAGGCC	-0.0506
AAGAACGG	-0.266
AAGTCATC	-0.182
ACCGGTAC	-0.0922
GAATGCAA	-0.0468
AGACCAAG	-0.175
AGATAGGG	-0.234
CGATAAGC	-0.261
TGGAGGAA	0.0436
ATAGTCAG	-0.0316
CAAACGCG	0.121

Sequence	PBM E-score
GGGCTTCA	-0.104
ATGCAAAG	0.128
ATTACCTC	0.076
AACGCGAC	0.23
GCGTTAGA	-0.19
AATTAACG	0.181
TCACGAGA	-0.168
CACTCCTG	-0.143
ACTGAAGC	0.00463
CGACCTCG	-0.166
ACAATAAT	0.0908
CCGCTTTC	-0.0011
AGCCGCAA	-0.287
GCACCAGA	0.057
CAAAATTC	0.0637
CATCCCCG	-0.239
TATTTAGA	0.184
GTCTAGAA	-0.106
CTGAAGGC	0.151
ACCCGGAA	-0.0257
AAGAATTA	0.133
GAAAGTCA	0.117
AAAGCCCA	-0.1
ATGATAGC	0.11
ACGTATAT	0.211

Sequence	PBM E-score
CCCGAAAC	-0.104
AATGCACT	0.144
TGCCGACA	-0.0442
TACAAGCA	0.284
CCATTGTA	0.127
GACAAACA	0.0771
TGATGCAA	0.0599
ATCTGGTC	-0.00325
CAGGACCG	-0.12
CTACAGGA	0.242
AAATGATC	-0.214
CGGGCTCC	-0.167
ACCCTATA	-0.112
ATTCCATC	-0.0416
AGGAAACT	0.421
GGATGCGA	-0.246
CTTATCAC	-0.0296
CGGGCGGA	-0.277
AAAGATAA	0.104
GGCCTTAC	-0.00846
AAAATATG	-0.0851
GAAACGAA	-0.00785
CGGGACTA	-0.291
CTCACGTC	-0.243
CGAAGGGC	-0.0984

Sequence	PBM E-score
CCCAATTA	-0.0859
CCACATGA	0.0141
GAAGTGAC	-0.119
ACAGGATC	0.234
CGTGTGTC	0.147
ATGCTTCG	-0.149
ACGTTTAG	0.128
GCCAATTA	-0.0639
TCCACGAA	-0.0319
CCCCACGA	-0.107
CATGAGGA	-0.0554
GACATTAA	0.129
ACGCAAAT	0.0286
CGTGAAAC	0.0734
ACAATGAT	0.0781
GTGAGGAA	-0.106
CGACTTGC	-0.263
TACAGCTA	-0.0705
AACGATGC	-0.0992
CTCAATGC	-0.0468
AGTTTCAA	0.0631
ATGTTGAA	0.283
AAACGAGT	0.131
CCGTGCCC	0.304
AGCTCCTC	-0.233

Sequence	PBM E-score
ATGATTAC	0.252
CTTACCAC	0.103
GAGGAATC	-0.0751
AATACAAC	0.236
AATAACCA	0.107
TAGATATA	0.06
AGCCAGTA	-0.109
AAATAAAA	0.142
ACATTCAG	0.0154
AGACAGCG	-0.186
GTCGGTAA	-0.0334
TCGGGCAA	-0.133
GTTGCGAA	0.0584
AGTCGGCC	-0.359
GGGTTTAA	0.0728
CGCACGGC	-0.0477
ATATAAAC	0.194
CCTGGGAC	-0.133
TGCGCCAA	-0.26
CGGGGTCA	-0.344
GGAAAGAA	0.0908
ATGGTATA	-0.014
ACTGGGTC	-0.337
TGGCGCCA	-0.0648
AACCTCTG	-0.176

Sequence	PBM E-score
CCCTCCCA	-0.0757
AACAAGTA	0.247
GTAATAGA	0.225
ATTCTAAC	0.0138
AAAGAAAA	0.081
CGTCTCAA	-0.0928
GCTTACGA	-0.0856
ATAACATC	0.21
ACTACGCC	-0.217
CAATAGCA	-0.128
CCCCTTAC	-0.0693
AATTTACA	0.382
AGTATACG	0.112
ACCATAGT	-0.184
GTGTCTTA	0.204
GCTATACA	0.177
CACTCCAA	-0.141
CAAAAGTC	-0.0843
ATAGCTCC	-0.278
ATGGGAAA	-0.228
CGCCATCC	-0.195
GTAAACAA	0.283
